For 31 sequences, binding signal results are on record in publication PMC12820563, “FoxP3 forms a head-to-head dimer in vivo and stabilizes its multimerization on adjacent microsatellites”.

The other results are listed elsewhere or left out.

The experiment has as its target T1, MBP-FoxP1dN (Mus musculus, UniProt P58462 326-579).
T1 sequence: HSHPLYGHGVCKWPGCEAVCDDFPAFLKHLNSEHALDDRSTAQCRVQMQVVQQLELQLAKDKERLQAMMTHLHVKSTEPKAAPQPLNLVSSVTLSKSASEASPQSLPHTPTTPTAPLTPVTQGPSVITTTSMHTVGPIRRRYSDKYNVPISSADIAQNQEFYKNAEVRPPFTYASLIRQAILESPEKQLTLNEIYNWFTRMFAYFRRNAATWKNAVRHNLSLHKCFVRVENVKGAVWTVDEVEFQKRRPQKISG
Description: PD-seq (MBP pull-down with sequencing); 20 mM Tris-HCl pH 7.5, 100 mM NaCl, 1.5 mM MgCl2, 0.4 uM protein, 0.1 uM dsDNA library, 30 min, room temperature, amylose pull-down; high values mean tight binding. The conditions noted are these: protein: recombinant; tags: His6-MBP; chain copies: 2; dsDNA, one strand shown. The method in brief: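 A degenerate double-stranded DNA library, filled in with Klenow, was added at 0.1 µM to 0.4 µM His6-MBP-tagged mouse FoxP3 or FoxP1 fragment lacking the N-terminus, expressed in E. coli. Incubation lasted 30 min at room temperature in Tris pH 7.5 buffer with NaCl and MgCl2, after which complexes were collected on amylose resin, washed three times, digested with proteinase K to free the DNA, barcoded by PCR and sequenced by Illumina. Binding is the pooled-replicate reads-per-million enrichment of pull-down over input.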
Consider “GATGATTGTTCTCCCAGCTGATGAATTGCTCTCTTCGAGTAAACAAATTTTCCTAATCTTTCTGTTCAAGCGCCATCTAC”, for which the binding signal is 1.01 RPM ratio (pull-down/input). To “GATGATTGTTCTCCCAGCTGATGAATTAACTAGATCGAGTAAACAAATTTTCCTAATCTTTCTGTTCAAGCGCCATCTAC” belongs 0.941 RPM ratio (pull-down/input); to “GATGATTGTTCTCCCAGCTGATGAATTCAAAGCGTCGAGTAAACAAATTTTCCTAATCTTTCTGTTCAAGCGCCATCTAC”, 0.872 RPM ratio (pull-down/input). The value for “GATGATTGTTCTCCCAGCTGATGAATTTTAAGTATCGAGTAAACAAATTTTCCTAATCTTTCTGTTCAAGCGCCATCTAC” was 1.1 RPM ratio (pull-down/input); that for “GATGATTGTTCTCCCAGCTGATGAATTAAAGCATTCGAGTAAACAAATTTTCCTAATCTTTCTGTTCAAGCGCCATCTAC” was 1.23 RPM ratio (pull-down/input). As to “GATGATTGTTCTCCCAGCTGATGAATTCGGCATCTCGAGTAAACAAATTTTCCTAATCTTTCTGTTCAAGCGCCATCTAC”, the binding signal was 1.1 RPM ratio (pull-down/input). To “GATGATTGTTCTCCCAGCTGATGAATTGGAGATATCGAGTAAACAAATTTTCCTAATCTTTCTGTTCAAGCGCCATCTAC” belongs 0.908 RPM ratio (pull-down/input); to “GATGATTGTTCTCCCAGCTGATGAATTCAAGGTTTCGAGTAAACAAATTTTCCTAATCTTTCTGTTCAAGCGCCATCTAC”, 0.912 RPM ratio (pull-down/input). To “GATGATTGTTCTCCCAGCTGATGAATTCAGTCCATCGAGTAAACAAATTTTCCTAATCTTTCTGTTCAAGCGCCATCTAC” belongs 0.891 RPM ratio (pull-down/input); to “GATGATTGTTCTCCCAGCTGATGAATTGAGGGGCTCGAGTAAACAAATTTTCCTAATCTTTCTGTTCAAGCGCCATCTAC”, 0.822 RPM ratio (pull-down/input). The value for “GATGATTGTTCTCCCAGCTGATGAATTTTAGTAGTCGAGTAAACAAATTTTCCTAATCTTTCTGTTCAAGCGCCATCTAC” was 0.947 RPM ratio (pull-down/input); that for “GATGATTGTTCTCCCAGCTGATGAATTGGTAGATTCGAGTAAACAAATTTTCCTAATCTTTCTGTTCAAGCGCCATCTAC” was 0.997 RPM ratio (pull-down/input); that for “GATGATTGTTCTCCCAGCTGATGAATTCGATCTCTCGAGTAAACAAATTTTCCTAATCTTTCTGTTCAAGCGCCATCTAC” was 0.749 RPM ratio (pull-down/input).

In the case of “GATGATTGTTCTCCCAGCTGATGAATTGTCTGGCTCGAGTAAACAAATTTTCCTAATCTTTCTGTTCAAGCGCCATCTAC”, the binding signal is 0.857 RPM ratio (pull-down/input). Turning to “GATGATTGTTCTCCCAGCTGATGAATTCGGTGTGTCGAGTAAACAAATTTTCCTAATCTTTCTGTTCAAGCGCCATCTAC”, the binding signal was 0.959 RPM ratio (pull-down/input). The value for “GATGATTGTTCTCCCAGCTGATGAATTGTGCATATCGAGTAAACAAATTTTCCTAATCTTTCTGTTCAAGCGCCATCTAC” was 1.29 RPM ratio (pull-down/input); that for “GATGATTGTTCTCCCAGCTGATGAATTGTCATAATCGAGTAAACAAATTTTCCTAATCTTTCTGTTCAAGCGCCATCTAC” was 1.44 RPM ratio (pull-down/input). To “GATGATTGTTCTCCCAGCTGATGAATTGTGAGATTCGAGTAAACAAATTTTCCTAATCTTTCTGTTCAAGCGCCATCTAC” belongs 1.04 RPM ratio (pull-down/input). To “GATGATTGTTCTCCCAGCTGATGAATTAAAGCAGTCGAGTAAACAAATTTTCCTAATCTTTCTGTTCAAGCGCCATCTAC” belongs 0.924 RPM ratio (pull-down/input). As to “GATGATTGTTCTCCCAGCTGATGAATTCTGTACGTCGAGTAAACAAATTTTCCTAATCTTTCTGTTCAAGCGCCATCTAC”, the binding signal is 0.92 RPM ratio (pull-down/input). To “GATGATTGTTCTCCCAGCTGATGAATTGCGCAAATCGAGTAAACAAATTTTCCTAATCTTTCTGTTCAAGCGCCATCTAC” belongs 1.26 RPM ratio (pull-down/input); to “GATGATTGTTCTCCCAGCTGATGAATTCAGATCATCGAGTAAACAAATTTTCCTAATCTTTCTGTTCAAGCGCCATCTAC”, 0.939 RPM ratio (pull-down/input); to “GATGATTGTTCTCCCAGCTGATGAATTCCTTCCGTCGAGTAAACAAATTTTCCTAATCTTTCTGTTCAAGCGCCATCTAC”, 0.839 RPM ratio (pull-down/input). To “GATGATTGTTCTCCCAGCTGATGAATTTGAGCGCTCGAGTAAACAAATTTTCCTAATCTTTCTGTTCAAGCGCCATCTAC” belongs 0.83 RPM ratio (pull-down/input); to “GATGATTGTTCTCCCAGCTGATGAATTCACGTGGTCGAGTAAACAAATTTTCCTAATCTTTCTGTTCAAGCGCCATCTAC”, 0.933 RPM ratio (pull-down/input); to “GATGATTGTTCTCCCAGCTGATGAATTTTGAAGTTCGAGTAAACAAATTTTCCTAATCTTTCTGTTCAAGCGCCATCTAC”, 0.901 RPM ratio (pull-down/input).

With “GATGATTGTTCTCCCAGCTGATGAATTAGCCTGATCGAGTAAACAAATTTTCCTAATCTTTCTGTTCAAGCGCCATCTAC”, the binding signal was 0.84 RPM ratio (pull-down/input). To “GATGATTGTTCTCCCAGCTGATGAATTAAAGTAATCGAGTAAACAAATTTTCCTAATCTTTCTGTTCAAGCGCCATCTAC” belongs 1.64 RPM ratio (pull-down/input); to “GATGATTGTTCTCCCAGCTGATGAATTCATAATTTCGAGTAAACAAATTTTCCTAATCTTTCTGTTCAAGCGCCATCTAC”, 1.06 RPM ratio (pull-down/input); to “GATGATTGTTCTCCCAGCTGATGAATTATTGTACTCGAGTAAACAAATTTTCCTAATCTTTCTGTTCAAGCGCCATCTAC”, 1.24 RPM ratio (pull-down/input). To “GATGATTGTTCTCCCAGCTGATGAATTATTTTCCTCGAGTAAACAAATTTTCCTAATCTTTCTGTTCAAGCGCCATCTAC” belongs 1.34 RPM ratio (pull-down/input).
